Measurements: publication PMC4336329 (PLoS ONE, 2015)
The campaign covered roughly 310,000 compounds. About 14,000 (4.5%) showed an effect of 50% or more. The effect is printed as a negative number. The list shows a part of the results.

Target: human ether-à-go-go-related gene (hERG) potassium channel (human, UniProt Q12809)
Experiment: primary screen, population patch clamp on CHO cells stably expressing hERG
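Also: peak tail current of the secondary pulse compared with the same well before compound.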

Chain of human ether-à-go-go-related gene (hERG) potassium channel (Q12809 whole entry, looked up): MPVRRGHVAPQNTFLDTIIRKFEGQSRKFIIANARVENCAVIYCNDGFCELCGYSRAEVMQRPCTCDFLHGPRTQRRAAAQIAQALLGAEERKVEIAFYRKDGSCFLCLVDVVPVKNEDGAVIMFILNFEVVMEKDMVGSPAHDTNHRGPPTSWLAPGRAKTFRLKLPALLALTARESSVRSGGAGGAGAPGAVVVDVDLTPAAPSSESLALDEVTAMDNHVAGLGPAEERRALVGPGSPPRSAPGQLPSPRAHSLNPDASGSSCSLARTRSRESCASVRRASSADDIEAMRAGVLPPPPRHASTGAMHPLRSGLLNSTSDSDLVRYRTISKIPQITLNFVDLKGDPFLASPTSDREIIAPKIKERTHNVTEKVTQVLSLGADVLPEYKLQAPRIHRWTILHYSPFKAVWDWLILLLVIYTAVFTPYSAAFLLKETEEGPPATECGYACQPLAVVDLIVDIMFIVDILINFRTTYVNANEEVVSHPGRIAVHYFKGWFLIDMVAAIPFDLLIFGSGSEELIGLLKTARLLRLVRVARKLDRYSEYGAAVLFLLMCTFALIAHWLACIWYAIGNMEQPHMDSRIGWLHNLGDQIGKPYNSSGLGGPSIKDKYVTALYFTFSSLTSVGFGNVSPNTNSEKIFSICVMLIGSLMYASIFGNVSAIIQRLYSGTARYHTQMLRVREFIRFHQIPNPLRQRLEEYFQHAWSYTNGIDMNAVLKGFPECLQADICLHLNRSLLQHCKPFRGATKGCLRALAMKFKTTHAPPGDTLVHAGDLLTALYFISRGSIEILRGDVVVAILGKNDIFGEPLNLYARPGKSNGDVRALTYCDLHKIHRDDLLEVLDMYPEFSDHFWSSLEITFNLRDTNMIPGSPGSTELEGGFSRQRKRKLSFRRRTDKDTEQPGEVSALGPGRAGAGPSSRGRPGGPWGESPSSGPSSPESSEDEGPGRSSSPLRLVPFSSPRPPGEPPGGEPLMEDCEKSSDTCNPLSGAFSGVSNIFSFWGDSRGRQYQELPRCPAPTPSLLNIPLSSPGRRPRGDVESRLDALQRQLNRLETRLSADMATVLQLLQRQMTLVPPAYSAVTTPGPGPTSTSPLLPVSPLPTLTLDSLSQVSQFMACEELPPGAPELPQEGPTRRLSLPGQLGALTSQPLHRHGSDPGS

Row | Structure (SMILES) | hERG current change (%, negative = inhibition) at 10uM [%]
1 | CCOC(=O)C1(Cc2cccc(Cl)c2)CCCN(C(=O)c2cc(C(C)C)nn2C)C1 (centres unmarked) | -13.1
2 | O=C(N/N=C/c1ccc[nH]1)c1cc(-c2ccc(Cl)cc2)nc2ccccc12 | -8.9
3 | Cc1cccc(C)c1Nc1nnc(SC(C)C(=O)Nc2c(C)n(C)n(-c3ccccc3)c2=O)s1 (centres unmarked) | -9.32
4 | COc1ccc(/C=N/NC(=O)c2cccc(OC(F)(F)C(F)F)c2)cc1O | -8.23
5 | O=c1[nH]ncc(N/N=C/c2ccccc2)c1Cl | -5.82
6 | C/C=C/c1ccc(OCC(=O)N2CCc3cc(OC)c(OC)cc3C2)c(OC)c1 | -12.4
7 | CN(C(=O)C1CCC(=O)N(C2CC2)C1)C1CCCCC1 (centres unmarked) | 6.92
8 | O=C(O)C[C@H]1c2ccccc2S(=O)(=O)N1C1CCCCC1 | 18.7
9 | COC(=O)C1=C(C)C(c2ccc(OC)cc2)NC(=S)N1 (centres unmarked) | -0.668
10 | O=S(=O)(NCc1cccnc1)c1cccc2cccnc12 | 6.44
11 | CN(C(=O)/C=C/c1ccccc1)C1CCS(=O)(=O)C1 (centres unmarked) | -0.518
12 | CCC1CCCCN1c1ccc([N+](=O)[O-])cc1/C=N/NC(=O)Cn1c2ccccc2c(=O)c2ccccc21 (centres unmarked) | 0.558
13 | O=C(Nc1cc(S(=O)(=O)N2CCOCC2)ccc1N1CCCC1)c1cccnc1Cl | 24.2
14 | CCCc1ncc(C(O)c2ccc(OC)cc2)n1C (centres unmarked) | -12.6
15 | CC1=C(/C=C/C(C)=N\NC(=O)c2ccncc2)C(C)(C)CCC1 | -28.6
16 | Cn1nnnc1SCc1cc(=O)[nH]c2ccccc12 | 2.31
17 | C=CCOc1ccccc1CN1CCC(C(=O)Nc2cccc(-c3ccn[nH]3)c2)CC1 | -33.9
18 | COC(=O)C(O)(CC(=O)Nc1ccc(C)c(F)c1)C(F)(F)F (centres unmarked) | 18.3
19 | Cc1cc(F)ccc1NC(=O)C1CCN(S(=O)(=O)c2ccc3c(c2)CCCC(=O)N3)CC1 | 13.1
20 | O=C(CSc1nnc(-c2ccccc2)n1CC1CCCO1)N1CCCC1 (centres unmarked) | 17.8
21 | CN(CC(=O)Nc1ccccc1Cl)C(=O)COC(=O)Cc1ccc(F)cc1 | 1.33
22 | CC(C)C(C(=O)NCC1CCCO1)N(C(=O)CNS(=O)(=O)c1ccc(F)cc1)C1CCCCC1 (centres unmarked) | -15
23 | Cc1ccc(S(=O)(=O)NCC(=O)OCCOc2cccc(Cl)c2)cc1 | 8.36

Row | Structure (SMILES) | hERG current change (%, negative = inhibition) at 10uM [%]
24 | CCOC(=O)c1c(C)c(C(=O)NCc2ccc(OC)cc2)c(C)n1C | 6.13
25 | COC(=O)c1c(C)[nH]c(C(=O)/C=C/c2ccc(Cl)cc2)c1C | 3.64
26 | COc1ccccc1NC(=O)COc1cccc2c1CCNC2=O | -12.9
27 | O=C(Nc1ccc(Oc2ccccc2)nc1)C1CCCCN1Cc1cccc(O)c1 (centres unmarked) | -8.21
28 | Cc1cc(NC(=O)CCC(=O)N(CC(=O)NCC2CCCO2)c2cccc(F)c2)no1 (centres unmarked) | 5.37
29 | O=C(NNC(=O)C12CC3CC(CC(C3)C1)C2)[C@@H]1C[C@H]1c1ccccc1 | 1.54
30 | Cc1nn(C(C)C(=O)NCCN2CCCCCC2)c(=O)c2nn(-c3ccccc3)c(C)c12 (centres unmarked) | 21.6
31 | C=CCc1ccccc1OCC(O)CN1CCOCC1 (centres unmarked) | 13.1
32 | CC(=O)Nc1cccc2c1C(=O)N(c1ccccc1OC(C)=O)C2=O | 28.5
33 | O=C(CCc1ccncc1)N1CCCC(Nc2ccc(F)cc2)C1 (centres unmarked) | -13.9
34 | Cc1ccc(-c2cc(-c3cccs3)[nH]n2)c(O)c1 | 1.75
35 | O=C(CCNS(=O)(=O)c1ccc(Br)s1)Nc1ccc(Cl)cc1 | 1.68
36 | C=CCN1C(=O)/C(=C/c2ccccc2)S/C1=N/c1nccs1 | -2.21
37 | COc1cccc(NC(=O)CN(C)C(=O)c2c(C)nn(CC(C)C)c2Cl)c1 | 3.65
38 | O=C(C1=C[C@H](c2ccc(Br)cc2)C[C@H](OCc2ccc(CO)cc2)O1)N1CCOCC1 | -45.1
39 | COc1ccc(OCCSc2nnc(C(C)NC(=O)c3ccccc3F)n2C)cc1 (centres unmarked) | 1.3
40 | O=C(Nc1ccccc1NC(=O)c1ccco1)c1ccccc1 | 4.99
41 | Cc1cc(C)nc(SCc2ccc([N+](=O)[O-])cc2)n1 | -17
42 | CC12CCC(C(=O)NCc3ccc4c(c3)OCO4)(C(=O)C1=O)C2(C)C (centres unmarked) | -6.03
43 | O=C(Cn1nnc2ccccc21)c1ccc(Cl)cc1 | -4.9
44 | Cc1c(NS(=O)(=O)c2ccc3c(c2)Cc2ccccc2-3)c(=O)n(-c2ccccc2)n1C | 14.6
45 | CC(C)(C)C(=O)Nc1ccc(C(=O)NNC(=O)c2ccccc2)cc1 | 15.4
46 | Cc1cccc(C(=O)OCC(=O)Nc2sc3c(c2C#N)CCC3)c1 | 16.4

Row | Structure (SMILES) | hERG current change (%, negative = inhibition) at 10uM [%]
47 | COc1nc(-c2ccccc2)nc(C)c1CC(=O)O | 4.66
48 | O=C(NCc1ccccn1)c1ccc(Cl)c(S(=O)(=O)NCc2ccccc2)c1 | -22.8
49 | O=C(CCCN1C(=O)/C(=C/c2cccc(Br)c2)SC1=S)N1CCOCC1 | 9.86
50 | CC1(C)CC(=O)C2=C(C1)N(CCN1CCOCC1)C1=C(C(=O)CC(C)(C)C1)C2c1cccc(F)c1 | -33.5
51 | O=S1(=O)N=C(c2ccccc2)c2ccccc21 | 9.74
52 | Cc1csc(NC(=O)c2cc(C)oc2C)n1 | -0.00252
53 | Cc1ccnc(SCc2cc(=O)c(OC(=O)c3cc([N+](=O)[O-])ccc3Cl)co2)n1 | -5.61
54 | O=C(Nc1sc2c(c1C(=O)O)CCCCC2)c1ccco1 | 4.36
55 | Cc1nn(C)c(C(=O)NNC(=S)Nc2ccc(F)cc2)c1[N+](=O)[O-] | 9.16
56 | O=C(O)c1cccc(C(=O)Cc2ccccc2)c1 | 18.7
57 | COc1ccc(CNC(=O)CN=C2NC(=O)C(c3ccccc3)(c3ccccc3)N2)cc1 | 8.59
58 | Cc1cc2c(cc1S(=O)(=O)N1CCN(c3ccccc3F)CC1)OCC(=O)N2 | 21.5
59 | O=c1cc(CNc2ccc(Br)cc2)nc2sccn12 | -30.2
60 | O=S(=O)(c1ccc(Cl)c(NC(=S)Nc2cccc(O)c2)c1)N1CCOCC1 | -1.85
61 | CCO/C=N/c1c(C#N)c(CC#N)nn1-c1ccccc1 | -8.25
62 | O=C(CSc1nnc(CNC(=O)c2cccs2)o1)Nc1ccc(Br)cc1 | 2.46
63 | COc1ccccc1N1CCN(C(=O)CSc2nc3ncnc(N)c3[nH]2)CC1 | 21.3
64 | COc1cccc(C(=O)O/N=C(\N)c2ccncc2)c1 | 7.52
65 | CCc1cccc(CC)c1N(COC)C(=O)Cn1ccccc1=N.Cl | -1.37
66 | CCCCn1c(SCC(=O)NC2CC(C)(C)NC(C)(C)C2)nc2cc(S(N)(=O)=O)ccc21.Cl | -0.109
67 | Cc1ccc2cc(-c3noc(C4CCCO4)n3)c(=O)[nH]c2c1 (centres unmarked) | 1.17
68 | COc1ccc(C(c2sc3ncnn3c2O)N2CCN(c3ccccc3F)CC2)cc1OC (centres unmarked) | -29.6
69 | CCc1nc(C)cn1S(=O)(=O)c1cc(C)c(OC)c(C)c1C | -24.6

Row | Structure (SMILES) | hERG current change (%, negative = inhibition) at 10uM [%]
70 | C=CCOc1ccc(/C=N/NC(C)=O)cc1OCC | -0.233
71 | Cc1ccc(S(=O)(=O)Nc2ccc(C(N)=O)cc2)cc1[N+](=O)[O-] | 1.17
72 | Cc1cccc(S(=O)(=O)Nc2ccncc2)c1 | 22.1
73 | Cc1ccc(NC(=O)Nc2ccc(Cl)cc2)c(Br)c1 | 12.2
74 | Clc1nc(N2CCOCC2)ncc1Br | 14.2
75 | CCC(C)c1ccccc1N1CC(C(=O)Nc2ccccc2N2CCCC2)CC1=O (centres unmarked) | -0.559
76 | O=C(CN1C(=O)C2CC=CCC2C1=O)OCC(=O)c1ccc(Cl)c([N+](=O)[O-])c1 (centres unmarked) | -3.83
77 | CCCCN(CCCC)CCNC(=O)CNC(=O)c1cccs1 | 6.83
78 | O=C(O)CSC(=S)N1CCCCC1 | 7.25
79 | COc1cccc(C(=O)N2CCC(C(=O)NCc3ccc(C)cc3)CC2)c1 | -36.3
80 | CCOC(=O)C(=O)NCC(c1cccs1)S(=O)(=O)c1ccc(F)cc1 (centres unmarked) | -5.48
81 | CCn1ccnc1CN1CCN(CC=C(C)C)C(CCO)C1 (centres unmarked) | 17.3
82 | CCC/C(=C1/c2ccccc2C(=O)N1c1ccccc1)c1ccc2c(c1)OCO2 | 14.5
83 | Cc1ccccc1C(=O)NNC(=O)C1CCCN(c2ncccn2)C1 (centres unmarked) | 1.65
84 | c1ccc(-c2nnc(-c3ccco3)n2-c2ccccc2)cc1 | -5.09
85 | Cc1ccc(SC(C)C(=O)N2CCC(C(N)=O)CC2)cc1 (centres unmarked) | 20.1
86 | COc1ccc(NC(=O)Cn2nnc(C(=O)NCCc3ccc(OC)c(OC)c3)c2N)c(OC)c1 | 11.6
87 | CCO/C(C)=C1\C(=O)Nc2ccccc21 | 9.79
88 | CC(C)n1c(O)c(N=NC(=O)Cn2ccc(C(F)(F)F)n2)c2ccccc21 | 2.32
89 | COc1ccccc1N1CCN(C2CCCN(C(=O)CN3CCCCC3=O)C2)CC1 (centres unmarked) | 8.94
